Experimental data: PubChem BioAssay (Tox21)
“And” between values parts separate entries of the source, which are not always exact repeats. Identical values can stand only once. This list was built around the results that the source calls inconclusive (neither active nor inactive); the mix of calls is not that of the screen. For some assays here: Potencies beside an inconclusive call are fits to weak or partial responses and may not hold up. More than one record can exist for a structure, and the calls need not agree. The source made the active and inactive calls. Unless noted, the call rests on the fitted dose curve; in most records, active means well fitted curve in the direction sought with a large enough effect in the repeat runs; inconclusive means weak or mixed curves; inactive means no such curve, though single readings can be large; an effect the other way counts as inactive or inconclusive.

Legend:
[1] = A CellTox Green Cytotoxicity Assay to monitor cytotoxicity in HEK293 cells - 16 hour (AID 1224888); conditions: CellTox Green fluorescence; series mostly up to 76.8 µM; further: nearly all actives have a fitted effect of over 35% in size
Outline: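 Homogeneous no-lysis format: HEK293 cell suspension mixed with CellTox Green reagent, seeded, incubated 5 h at 37 C/5% CO2, then dosed by pintool with compound in DMSO.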

[2] = qHTS RealTime-Glo MT Cell Viability Assay in HepG2 cells - 0 hour (AID 1224889); conditions: RealTime-Glo luminescence; series mostly up to 76.8 µM; further: nearly all actives have a fitted effect of over 50% in size
Outline: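 HepG2 suspension premixed with RealTime-Glo reagents is plated at 600 cells per well and left 5 h at 37 C/5% CO2. Compounds in DMSO then go in, and bioluminescence reflecting viable cell number is recorded over 40 h.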

[3] = qHTS assay to identify small molecule antagonists of the androgen receptor (AR) signaling pathway using the MDA cell line in the presence of 0.5 nM R1881 - cell viability counter screen (AID 1259242); conditions: MDA-kb2 viability, CellTiter-Fluor protease fluorescence, 16 h; series mostly up to 92.4 µM; further: nearly all actives have a fitted effect of over 45% in size
Outline: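 Human breast carcinoma MDA-kb2 cells, cultured without CO2, receive compounds alongside 0.5 nM (final) R1881 agonist. After 16 hr at 37C, viability is taken as live-cell protease signal.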

[4] = qHTS assay to identify small molecule agonists of the sonic hedgehog signaling (Shh) pathway - cell viability counter screen (AID 1259366); conditions: NIH/3T3 Gli1-Luc viability, CellTiter-Fluor, 24 h; series mostly up to 92.4 µM; further: nearly all actives have a fitted effect of over 50% in size
Outline: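 Cytotoxicity counter screen: CellTiter-Fluor reagent added after 23 h compound exposure, then 1 h at 37C and fluorescence read. Cells were 3T3 Gli1-Luc, seeded 2,000 per well and dosed 4 h post-plating.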

[5] = qHTS assay to identify small molecule antagonists of the sonic hedgehog signaling (Shh) pathway (AID 1259369; calls by dose curve; further: nearly all actives have a fitted effect of over 45% in size); conditions: NIH/3T3 Gli1-Luc reporter, Shh antagonist, luminescence 24 h; series mostly up to 92.4 µM
Outline: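 Gli1 transcriptional reporter (firefly Luc) in NIH/3T3 background, conditioned-medium activated. 24hr exposure, luminescence endpoint.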

[6] = target: Estrogen receptor beta (Homo sapiens) (UniProt Q92731); assay: qHTS assay to identify small molecule antagonists of the estrogen receptor beta (ER-beta) signaling pathway (AID 1259378; active means well fitted inhibition curve with a large enough effect in the signal ratio in the repeat runs, not every such curve was filed as active; inconclusive means weak or mixed curves, or effect the other way; inactive means no such curve, though single readings can be large or run the other way; the % refers to the signal ratio; on activity, negative = inhibition: on the % scale 0 is the no-effect control and ±100 the full control effect); conditions: ER-beta-UAS-bla HEK293T, beta-lactamase FRET ratio, 16 h; activity, negative = inhibition: at 92.4 µM (top of the series) unless noted
Outline: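 ER-beta-UAS-bla HEK293T cells in 2% charcoal-stripped FBS medium treated with compound plus 1nM final 17-beta-estradiol for 16 hr at 37C. Beta-lactamase reporter read by FRET substrate fluorescence after 2 hours at room temperature.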

[7] = qHTS RealTime-Glo MT Cell Viability Assay in HEK293 cells - 8 hour (AID 1224887); conditions: RealTime-Glo luminescence; series mostly up to 76.8 µM; further: nearly all actives have a fitted effect of over 50% in size
Outline: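 Measured as luminescence from the same continuously cultured HEK293 wells at successive time points (0, 8, 16, 24, 32, 40 h) after compound addition. Reagent present from seeding; dosing at 5 h; incubation 37 C.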

[8] = target: Androgen receptor (Homo sapiens) (UniProt P10275); assay: qHTS assay to identify small molecule antagonists of the androgen receptor (AR) signaling pathway using the MDA cell line in the presence of 0.5 nM R1881 (AID 1259243); conditions: MDA-kb2 MMTV-luciferase, R1881 0.5 nM, 16 h; series mostly up to 92.4 µM; further: nearly all actives have a fitted effect of over 50% in size
Outline: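 Cells: MDA-kb2 (MMTV-luc). Stimulus: 0.5 nM R1881. Time: 16 hr, 37C, no CO2. Detection: ONE-Glo luminescence after 30 min at RT.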

[9] = qHTS assay to identify small molecule antagonists of the sonic hedgehog signaling (Shh) pathway - cell viability counter screen (AID 1259367); conditions: NIH/3T3 Gli1-Luc viability, CellTiter-Fluor, 24 h; series mostly up to 92.4 µM; further: nearly all actives have a fitted effect of over 55% in size
Outline: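 Fluorescence read-out (CellTiter-Fluor, 1 hr at 37C) taken after 23 hr compound treatment of 3T3 Gli1-Luc cells stimulated with conditioned medium. Cells were seeded at 2,000 per well and pre-incubated 4 hr.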

[10] = target: Estrogen receptor (Homo sapiens) (UniProt P03372); assay: qHTS assay to identify small molecule antagonists of the estrogen receptor alpha (ER-alpha) signaling pathway using the BG1 cell line in the presence of 0.1 nM 17-beta-estradiol (AID 1259244); conditions: VM7Luc4E2 (BG1) ERE-luciferase, antagonist mode, 0.1 nM E2, 22 h; series mostly up to 92.4 µM; further: nearly all actives have a fitted effect of over 50% in size
Outline: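 Seeding of stripped-serum-adapted VM7Luc4E2 cells, 24 h attachment, compound transfer, then 0.1 nM final 17beta-estradiol; after 22 h incubation, ONE-Glo reagent and luminescence reading.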

[11] = qHTS assay to identify small molecule HDAC inhibitors - cell viability counter screen (AID 1259365); conditions: HCT-116 viability, CellTiter-Glo ATP luminescence, 2 h; series mostly up to 92.4 µM; further: nearly all actives have a fitted effect of over 50% in size
Outline: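 CellTiter-Glo luminescence (30 min, room temperature) reported viability after a 2 h compound exposure at 37 C. Cells: wild-type HCT-116, 1,500 per well, seeded the night before.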

[12] = qHTS assay to identify small molecule antagonists of the estrogen receptor alpha (ER-alpha) signaling pathway using the BG1 cell line in the presence of 0.1 nM 17-beta-estradiol - cell viability counter screen (AID 1259241); conditions: VM7Luc4E2 (BG1) viability, CellTiter-Fluor protease, 22 h, 0.1 nM estradiol agonist added; series mostly up to 92.4 µM; further: nearly all actives have a fitted effect of over 40% in size
Outline: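 Cytotoxicity counter-screen: live-cell protease activity measured by fluorescence (30 min reagent step) in the same wells. Cells were VM7Luc4E2 with endogenous ER-alpha and ERE-driven luciferase, treated 22 hr at 37C alongside 0.1 nM 17beta-estradiol final.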

[13] = qHTS assay to identify small molecule HDAC inhibitors (AID 1259364); conditions: HCT-116 HDAC-Glo I/II luminescence, 2 h; series mostly up to 92.4 µM;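 further: wild-type HCT-116 cells with endogenous class I/II HDAC activity; nearly all actives have a fitted effect of over 45% in size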
Outline: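 After a 2 hr compound incubation (37C, 5% CO2), HCT-116 cells seeded at 1,500/well the day before received HDAC-Glo reagent; signal read as luminescence after 30 min at room temperature.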

[14] = target: Estrogen receptor beta (Homo sapiens) (UniProt Q92731); assay: qHTS assay to identify small molecule agonists of the estrogen receptor beta (ER-beta) signaling pathway (AID 1259377; active means well fitted activation curve with a large enough effect in the signal ratio in the repeat runs, not every such curve was filed as active; inconclusive means weak or mixed curves, or effect the other way; the % refers to the signal ratio); conditions: ER-beta-UAS-bla HEK293T, beta-lactamase FRET ratio, 16 h; activation: at 92.4 µM (top of the series) unless noted
Outline: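 Ratiometric beta-lactamase FRET read-out came after 2 h substrate loading at room temperature. It followed 16 h compound treatment at 37C of GripTite HEK293T cells carrying a UAS-bla reporter, plated in 2% charcoal-stripped FBS medium.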

[15] = qHTS assay to identify small molecule agonists of the androgen receptor (AR) signaling pathway in the presence of an antagonist - cell viability counter screen (AID 1259379); conditions: MDA-kb2 viability, CellTiter-Fluor, 16 h; series mostly up to 92.4 µM; further: nearly all actives have a fitted effect of over 25% in size
Outline: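 Counter screen for cell viability run in parallel with the AR agonist-mode luciferase assay. MDA-kb2 cells were co-treated with nilutamide (3.0uM final) and compounds, then incubated 16 hr at 37C, and CellTiter-Fluor fluorescence was measured.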

[16] = A CellTox Green Cytotoxicity Assay to monitor cytotoxicity in HepG2 cells - 8 hour (AID 1224890); conditions: CellTox Green fluorescence; series mostly up to 76.8 µM; further: nearly all actives have a fitted effect of over 45% in size
Outline: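 Fluorescent DNA-binding dye, 600 HepG2 cells/well, 5 h preincubation then compound in DMSO; same plates read at 0–40 h, 37 C.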
Potency means the concentration at half of the fitted maximal effect; tags describe the fitted curve by direction and shape or compound fluorescence and quenching.

Sequence of UniProt P03372 (P03372 whole entry, looked up): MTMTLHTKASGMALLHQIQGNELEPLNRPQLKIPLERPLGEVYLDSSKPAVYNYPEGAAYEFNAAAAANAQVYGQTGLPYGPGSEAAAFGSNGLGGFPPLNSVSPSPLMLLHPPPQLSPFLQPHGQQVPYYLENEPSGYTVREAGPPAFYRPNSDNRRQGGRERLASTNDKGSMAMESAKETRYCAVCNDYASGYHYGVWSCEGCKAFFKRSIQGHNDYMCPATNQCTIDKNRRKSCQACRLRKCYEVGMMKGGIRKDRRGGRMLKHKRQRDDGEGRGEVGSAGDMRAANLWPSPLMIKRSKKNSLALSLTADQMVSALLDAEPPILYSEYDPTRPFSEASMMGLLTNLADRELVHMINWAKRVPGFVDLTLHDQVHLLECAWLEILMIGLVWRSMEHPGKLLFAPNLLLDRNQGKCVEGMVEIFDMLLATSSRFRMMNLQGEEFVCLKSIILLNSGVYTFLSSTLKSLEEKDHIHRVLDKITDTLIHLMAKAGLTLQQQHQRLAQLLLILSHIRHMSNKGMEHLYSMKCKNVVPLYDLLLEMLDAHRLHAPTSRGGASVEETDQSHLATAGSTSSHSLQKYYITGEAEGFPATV
Sequence of UniProt Q92731 (Q92731 whole entry, looked up): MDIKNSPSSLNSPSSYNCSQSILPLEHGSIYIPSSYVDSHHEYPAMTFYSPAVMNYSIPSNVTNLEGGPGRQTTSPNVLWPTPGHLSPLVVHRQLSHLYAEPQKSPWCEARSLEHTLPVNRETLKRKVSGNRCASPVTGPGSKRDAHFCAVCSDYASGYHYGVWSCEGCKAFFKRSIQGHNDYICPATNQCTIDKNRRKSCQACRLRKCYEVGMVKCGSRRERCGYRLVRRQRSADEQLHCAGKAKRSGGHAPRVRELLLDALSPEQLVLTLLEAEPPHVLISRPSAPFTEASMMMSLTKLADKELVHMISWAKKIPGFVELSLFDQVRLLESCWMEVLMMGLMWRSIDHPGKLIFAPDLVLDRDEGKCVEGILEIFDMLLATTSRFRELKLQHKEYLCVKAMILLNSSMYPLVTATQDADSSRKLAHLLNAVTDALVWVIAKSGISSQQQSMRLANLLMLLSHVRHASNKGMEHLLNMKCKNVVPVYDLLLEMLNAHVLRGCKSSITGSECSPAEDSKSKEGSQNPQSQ
Sequence of UniProt P10275 (P10275 whole entry, looked up): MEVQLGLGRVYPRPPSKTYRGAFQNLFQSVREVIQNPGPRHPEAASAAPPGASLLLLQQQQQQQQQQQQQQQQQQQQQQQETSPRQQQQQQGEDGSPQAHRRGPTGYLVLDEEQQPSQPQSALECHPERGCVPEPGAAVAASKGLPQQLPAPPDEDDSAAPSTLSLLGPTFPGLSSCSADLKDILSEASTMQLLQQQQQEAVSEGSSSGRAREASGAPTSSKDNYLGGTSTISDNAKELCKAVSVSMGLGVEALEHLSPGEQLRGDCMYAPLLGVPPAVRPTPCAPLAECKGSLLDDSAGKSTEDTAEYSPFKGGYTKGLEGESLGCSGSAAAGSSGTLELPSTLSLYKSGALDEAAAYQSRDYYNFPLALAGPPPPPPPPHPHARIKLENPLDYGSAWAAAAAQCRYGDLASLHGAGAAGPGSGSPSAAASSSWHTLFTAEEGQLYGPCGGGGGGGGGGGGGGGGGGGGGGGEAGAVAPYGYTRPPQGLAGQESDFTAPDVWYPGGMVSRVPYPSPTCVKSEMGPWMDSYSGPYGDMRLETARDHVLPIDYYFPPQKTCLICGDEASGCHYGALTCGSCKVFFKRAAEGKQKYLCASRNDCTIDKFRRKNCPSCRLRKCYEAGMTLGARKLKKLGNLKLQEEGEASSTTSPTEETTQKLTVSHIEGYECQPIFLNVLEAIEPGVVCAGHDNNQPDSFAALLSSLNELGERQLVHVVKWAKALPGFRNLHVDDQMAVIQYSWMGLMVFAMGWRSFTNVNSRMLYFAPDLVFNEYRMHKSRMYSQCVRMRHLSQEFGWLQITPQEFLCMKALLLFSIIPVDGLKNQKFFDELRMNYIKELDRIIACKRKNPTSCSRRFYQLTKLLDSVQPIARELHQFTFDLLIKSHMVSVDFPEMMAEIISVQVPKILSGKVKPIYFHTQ

**Q.** Which results are given for `O=C(CCl)CCl`?
**A.** Potency [1]: inactive; Potency [2]: inactive; Potency [3]: inconclusive: 56.5 µM [cytotoxic, partial curve] and inconclusive: 61.1 µM [cytotoxic, partial curve]; Potency [4]: inconclusive: 63.4 µM [cytotoxic, single point] and inconclusive: 68.6 µM [cytotoxic]; Potency [5]: inconclusive: 2.83 µM [inhibitor, full curve]; activity, negative = inhibition [6]: inconclusive: 24.9%

**Q.** For `c1cc[c]([Hg][c]2ccccc2)cc1`, which Potency [7] is on record?
**A.** inconclusive: 34.7 µM [cytotoxic, partial curve]

**Q.** What about the Potency [8] of the same compound?
**A.** inconclusive: 68.6 µM [inhibitor, single point]

**Q.** And the Potency [9]?
**A.** inconclusive: 27.3 µM [cytotoxic]

**Q.** Which results are given for `CCCCCCCCCCCCCC[P+](CCCCCC)(CCCCCC)CCCCCC`?
**A.** Potency [7]: inconclusive: 17.4 µM [cytotoxic, full curve]; Potency [3]: active: 9.73 µM and active: 13.8 µM and inconclusive: 6.11 µM [cytotoxic, full curve]; Potency [10]: active: 2.74 µM and active: 3.09 µM and active: 3.43 µM; Potency [11]: active: 34.5 µM and active: 69.1 µM

**Q.** Which results are given for `Nc1ccc(-c2ccc(N)c(N)c2)cc1N`?
**A.** Potency [7]: inconclusive: 43.5 µM [cytotoxic, partial curve]; Potency [2]: inconclusive: 34.6 µM [cytotoxic, partial curve]; Potency [12]: inconclusive: 54.3 µM [cytotoxic]; Potency [13]: inconclusive: 19.3 µM [inhibitor, full curve]; Potency [4]: inconclusive: 34.3 µM [cytotoxic, partial curve] and inconclusive: 61.1 µM [cytotoxic, partial curve]; Potency [5]: inconclusive: 48.6 µM [inhibitor, partial curve, poor fit]; Potency [14]: inconclusive: 19.3 µM [rising, partial curve, poor fit]; Potency [6]: active: 48.4 µM; activity, negative = inhibition [6]: inconclusive: -16%; Potency [15]: inconclusive: 60.9 µM [cytotoxic, partial curve]

**Q.** With `O=C(NC(=O)c1c(F)cccc1F)Nc1ccc(Oc2ccc(C(F)(F)F)cc2Cl)cc1F` as the compound, how does the Potency [7] read?
**A.** inconclusive: 21.9 µM [cytotoxic, partial curve]

**Q.** And the Potency [12]?
**A.** inconclusive: 61.1 µM [cytotoxic, partial curve, poor fit]

**Q.** What about the Potency [3] of the same compound?
**A.** inconclusive: 54.5 µM [cytotoxic, partial curve]

**Q.** What about the Potency [13] of the same compound?
**A.** inactive

**Q.** And the Potency [14]?
**A.** inconclusive: 54.5 µM [rising, partial curve]

**Q.** What about the activity, negative = inhibition [6] of the same compound?
**A.** inconclusive: 24.6%

**Q.** Which Potency [7] does the source give for `CCCCCCCCCCCCCCCC[N+](C)(C)C` here?
**A.** inconclusive: 16.8 µM [cytotoxic, partial curve] and inconclusive: 24.5 µM [cytotoxic, partial curve] and inconclusive: 23.9 µM [cytotoxic, partial curve, poor fit]

**Q.** And the Potency [16]?
**A.** inconclusive: 26.6 µM [activator, single point]

**Q.** What about the Potency [12] of the same compound?
**A.** inconclusive: 61.1 µM [cytotoxic, single point]

**Q.** What about the Potency [3] of the same compound?
**A.** inconclusive: 29.5 µM [cytotoxic, single point] and inconclusive: 33.5 µM [cytotoxic, single point]

**Q.** What about the Potency [9] of the same compound?
**A.** inconclusive: 16.6 µM [cytotoxic, partial curve, poor fit]

**Q.** And the Potency [5]?
**A.** active: 3.72 µM and active: 969 nM and active: 298 nM

**Q.** Which Potency [1] does the source give for `C=COC(C)=O` here?
**A.** inconclusive: 4.51 µM [activator, partial curve, poor fit]

**Q.** With `CCCCCCCCCCCCCCCCn1cc[n+](C)c1` as the compound, how does the Potency [7] read?
**A.** inconclusive: 8.9 µM [cytotoxic, partial curve, poor fit] and active: 55.4 µM and active: 55.1 µM

**Q.** What about the Potency [3] of the same compound?
**A.** inconclusive: 49.6 µM [cytotoxic, partial curve] and active: 34.7 µM and active: 48.7 µM

**Q.** What about the Potency [11] of the same compound?
**A.** inconclusive: 70.1 µM [cytotoxic, single point] and inconclusive: 69.2 µM [cytotoxic] and inconclusive: 68.7 µM [cytotoxic, single point]

**Q.** Which Potency [7] does the source give for `CC(C)(O)c1cnn2c(-c3ccc(F)c(-c4c(F)cccc4C#N)c3)cnc2n1` here?
**A.** active: 6.16 µM

**Q.** What about the Potency [2] of the same compound?
**A.** inconclusive: 27.5 µM [cytotoxic, partial curve]

**Q.** And the Potency [4]?
**A.** inconclusive: 61.1 µM [rising, partial curve]

**Q.** And the Potency [9]?
**A.** inconclusive: 68.6 µM [rising, single point]

**Q.** What about the Potency [5] of the same compound?
**A.** active: 4.33 µM

**Q.** What about the Potency [14] of the same compound?
**A.** inconclusive: 61.1 µM [fluorescent, partial curve]

**Q.** What about the Potency [6] of the same compound?
**A.** inconclusive: 68.6 µM

**Q.** What about the Potency [15] of the same compound?
**A.** inconclusive: 19.3 µM [cytotoxic, full curve]
